# Source: patent US9832995B2, “Microbial composition” (Rohm and Haas Company, priority 2011, dated 2017)
# Values joined by “and” are separate entries in the source; they are usually repeats but may differ in a detail not shown here. Equal entries are not always repeated. At least one read-out could not be matched to a standard name with certainty.
# System: Escherichia coli (E. coli - ATCC #10536)
# Experiment: Synergy test: high resolution MBC microtiter plate assay, 15 seconds contact, phosphate buffer containing 35% dipropylene glycol
# Type: cell-based
# Conditions: E. coli 10536, complete kill in 15 seconds, phosphate buffer with 35% DPG
# Description: The concentrations and ratios may also vary under different test conditions or with different test methods.
# One measure of synergy is the industrially accepted method described by Kull, F. C.; Eisman, P. C.; Sylwestrowicz, H. D. and Mayer, R. L., in Applied Microbiology 9:538-541 (1961), using the ratio determined by the formula: Qa/QA+Qb/QB=Synergy Index (“SI”) wherein: • QA=concentration of compound A (first component) in percent, acting alone, which produced an end point (MBC of Compound A). • Qa=concentration of compound A in percent, in the mixture, which produced an end point. • QB=concentration of compound B (second component) in percent, acting alone, which produced an end point (MBC of Compound B). • Qb=concentration of compound B in percent, in the mixture, which produced an end point.
# When the sum Qa/QA and Qb/QB is greater than one, antagonism is indicated. […] The lower the SI, the greater is the synergy shown by that particular mixture. The minimum biocidal concentration (MBC) of a microbicide is the lowest concentration tested under a specific set of conditions that provides complete kill of the tested microorganisms.
# Synergy tests were conducted using standard microliter plate assays with phosphate buffer containing 35% dipropylene glycol (DPG). In this method, a wide range of combinations of chemicals was tested by conducting high resolution MBC assays of Component (A) in the presence of various concentrations of Component (B). High resolution MBCs were determined by adding varying amounts of microbicide to one column of a microliter plate and doing subsequent […] dilutions using an automated liquid handling system to obtain a series of closely spaced endpoints. The MBC plate was inoculated one column at a time with the test microorganism. An aliquot of the inoculated well was transferred at 15 seconds to a plate containing a neutralising agent (D/E Neutralising Broth), mixed and held for 5 minutes before being transferred to a growth plate-containing trypticase soy broth (TSB). The TSB plate was incubated at 37° C. and read for the presence/absence of growth at 24 hours. The lowest level tested that provided complete kill (as evidenced by no growth in the microtitre plate) of the test organisms in 15 seconds is the minimum biocidal concentration (MBC).
# The synergy of the combinations of the present invention was determined against a bacterium, Escherichia coli (E. coli—ATCC #10536), at a concentration of approximately 1×10^8 bacteria per mL. This microorganism is representative of natural contaminants in many consumer and industrial applications.
row,Structure (SMILES),"MBC of the component acting alone (QA or QB; Qa with Qb = 0, or Qb with Qa = 0)"
1,"Oc1ccc2c(c1)CCCC2 [5,6,7,8-tetrahydronaphthalen-2-ol]",0.8 weight % and 0.6 weight %
2,"CC(C)(C)c1ccc(O)c(O)c1 [4-tert-butylbenzene-1,2-diol]",0.8 weight % and 1.0 weight %
3,"Cc1cc(O)cc(C)c1Cl [4-chloro-3,5-dimethylphenol]",0.6 weight % and 0.8 weight %
4,"CC[C@H]1CC[C@H](C(CO)CO)CC1 [2-(trans-4-ethylcyclohexyl)propane-1,3-diol]",0.8 weight %
5,Oc1ccccc1C1CCCC1 [2-cyclopentylphenol],0.4 weight %
6,"Cc1ccc(C(C)C)c(O)c1O [3-isopropyl-6-methylbenzene-1,2-diol]",0.8 weight % and 1.0 weight %
